In general, GI50 refers to the concentration at which growth is held to half of that of the control. One may read the TGI as the concentration giving total growth inhibition. The low end stands for more potent growth arrest, the high end for less potent growth arrest.

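Briefly, cells in 96-well plates were exposed to five compound concentrations for 48 h, and endpoints were estimated by linear interpolation. GI50 = concentration required for 50% inhibition of growth. TGI marks complete inhibition of growth.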

In this experiment the test system is NCI-H322M lung. Nature of the experiment: DTP human tumour cell line panel, 48 h.
In the case of `N#Cc1cnc2ccc(-c3cnc4n[nH]nc4c3)cc2c1N1CCc2cc(F)c(Cl)cc21`, the GI50 was 3.41 µM and the TGI worked out at 41.9 µM.
For `C=C(C=O)[C@@H]1CC[C@]2(COC(C)=O)CC[C@]3(C)C(CC[C@@H]4[C@@]5(C)CC[C@H](OC(C)=O)C(C)(C)[C@@H]5CC[C@]43C)[C@@H]12` (stereo partly drawn) the same measures were above 100 µM and above 100 µM.
For `CC(C)(C)Nc1nc2c(OCCc3ccccc3)cccn2c1-c1ccc(Cl)cc1` the same measures were 21.6 µM and above 100 µM.
For `CCN1C(=O)N(CC)C2SC(N/N=C/c3ccccc3F)=NC21` (stereo not drawn) the same measures were 1.16 µM and above 100 µM.

These data come from PubChem BioAssay (NCI).
